The values below come from the supplement of paper PMC10126150.

Sequences with one replicate were seen in a single cluster, so their values are uncertain.
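Note: ATP exposure 15 min at 22 °C before imaging.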

The data set has as its system ATP. The data set is described as follows: switch fluorescence ratio, 500 uM ATP over buffer (Cy3 cluster intensity, sum of 5 cycles each) (fold (ratio)); higher = stronger signal-on switching upon ATP binding; sequences stand for … in TCGTCGGCAGCGTCAGATGTGTATAAGAGACAGTTTTTTTTTTTTTTTTTTTTTTTTT…TC. To be noted: aptamer strand: ATP DNA aptamer (quencher-CACCTGGGGGAGTATTGCGGAGGAAGG + anchor), 100 nM annealed; ATP concentration: 500 uM; one replicate. The procedure, abridged:
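Switching-strand clusters labelled with Cy3 on a modified Illumina MiSeq flow-cell were annealed to 100 nM quencher-labelled ATP aptamer, imaged in selection buffer, and re-imaged after 15 min with 500 uM ATP at 22 °C. This was done over five cycles with NaOH stripping and re-annealing in between. The fluorescence ratio is summed target-cycle over summed buffer-cycle Cy3 intensity per cluster, averaged per switch-domain sequence, excluding clusters outside 100-1000 RFU.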
Consider CGGGGGCCTG, for which the switch fluorescence ratio worked out at 0.894.

Turning to GAAGTTAAAT, the switch fluorescence ratio worked out at 1.01.

For the sequence GCGCATGTTA, the switch fluorescence ratio is 1.03.

Consider CCTCAGTATG, for which the switch fluorescence ratio was determined as 1.35.

As for TAGAGTTACA, the switch fluorescence ratio is 1.

Regarding AAAGGGATGA, the switch fluorescence ratio was determined as 0.98.

Turning to GTGGCTGGGC, the switch fluorescence ratio is 1.03.

GAATTTGCTT: the switch fluorescence ratio was 0.968.

As to AATCCAAAGA, the switch fluorescence ratio was 0.993.

TAGCCACGTC: the switch fluorescence ratio was 1.03.

Take ATTTTTCAGT: the switch fluorescence ratio came to 0.987.

For the sequence GGGACGGAGG, the switch fluorescence ratio worked out at 0.94.

For the sequence CGGACGCTAG, the switch fluorescence ratio was 1.1.

Take GACTTTCCGC: the switch fluorescence ratio was found to be 1.5.

In the case of ATTTCGACAG, the switch fluorescence ratio is 0.989.

In the case of GGGGTACTAT, the switch fluorescence ratio stood at 1.

On to ACTCCAACTC, for which the switch fluorescence ratio worked out at 1.94.

Consider TCTGACCGTG, for which the switch fluorescence ratio was found to be 1.01.

As to CCAGGCCCAG, the switch fluorescence ratio turned out to be 1.07.

Take ACTTTTCGGA: the switch fluorescence ratio was 1.

As for CAGTCGTAC, the switch fluorescence ratio came out at 1.09.

TAAACAATCG: the switch fluorescence ratio was 1.46.

Consider TTACGCCCGT, for which the switch fluorescence ratio came to 1.06.

Take CGACGGGAGG: the switch fluorescence ratio turned out to be 1.01.

Consider CGGCAGAGGA, for which the switch fluorescence ratio was determined as 1.

In the case of TGACGACCAG, the switch fluorescence ratio worked out at 1.08.

With TTCGACGGAT, the switch fluorescence ratio came to 1.07.

For the sequence CCTGGCGTTT, the switch fluorescence ratio turned out to be 1.04.

With CTGACTAGTG, the switch fluorescence ratio amounted to 0.999.

As to CGCAGAAGGG, the switch fluorescence ratio amounted to 0.983.

Consider CATTTTTGAC, for which the switch fluorescence ratio is 1.01.

Consider CCATATGTA, for which the switch fluorescence ratio came out at 0.999.

With TTTAGCTTCT, the switch fluorescence ratio is 1.01.

For ACATGGCACT, the switch fluorescence ratio amounted to 1.12.

AGCTTATATC: the switch fluorescence ratio turned out to be 1.26.

With TATTGAGTCG, the switch fluorescence ratio came out at 1.09.

As to TAGCTGACTC, the switch fluorescence ratio was found to be 1.54.

In the case of TCTAGCAGCT, the switch fluorescence ratio was determined as 1.03.

With ATATGGCAGG, the switch fluorescence ratio was determined as 0.993.

On to GTCACTTGTG, for which the switch fluorescence ratio worked out at 0.969.

In the case of TCGTGTAACC, the switch fluorescence ratio was 1.02.

As for CTAAAACCCC, the switch fluorescence ratio was 1.04.

On to TCAAGGTCTT, for which the switch fluorescence ratio is 0.95.

For the sequence GGTCCCGGGT, the switch fluorescence ratio was found to be 1.04.

With GGCATGGTTG, the switch fluorescence ratio is 0.986.

On to GCTTGGTGTG, for which the switch fluorescence ratio is 1.01.

As for GTCGAGACGC, the switch fluorescence ratio was determined as 1.02.

GTAGCCCTGA: the switch fluorescence ratio stood at 1.04.

Consider GAATGAGCGG, for which the switch fluorescence ratio amounted to 1.02.

Turning to TGTGCACCAC, the switch fluorescence ratio came to 1.03.

For AAGCACCTGG, the switch fluorescence ratio is 1.07.

For the sequence CTCAGCGGTG, the switch fluorescence ratio was found to be 1.05.

Consider CTGAATAAG, for which the switch fluorescence ratio worked out at 1.

For GAAGGGGCTC, the switch fluorescence ratio stood at 0.993.

Regarding GGAATTCCG, the switch fluorescence ratio was 0.994.

For the sequence AGCCTCGCGG, the switch fluorescence ratio is 1.

As to GTCTCCAACA, the switch fluorescence ratio was 1.01.

With CAGACCCAGC, the switch fluorescence ratio amounted to 1.02.

For TCTTGGAGCG, the switch fluorescence ratio is 1.04.

On to ATGAGCTCTA, for which the switch fluorescence ratio came to 0.964.

Consider TGATAGAGG, for which the switch fluorescence ratio worked out at 1.03.

With GATGCTGAA, the switch fluorescence ratio was 1.

With TCTAAACCGA, the switch fluorescence ratio was 1.19.

For GGAATGCCGT, the switch fluorescence ratio is 1.03.

ACTGTGTGG: the switch fluorescence ratio is 1.

As to TTCACAGTTA, the switch fluorescence ratio turned out to be 0.988.

On to ACGGATCCTA, for which the switch fluorescence ratio turned out to be 0.959.
